{"source": "PubChem BioAssay AID743279", "about": "(National Center for Advancing Translational Sciences (NCATS), 2014)", "note": "The whole screen tested about 360,000 compounds, of which about 17,000 (4.7%) were called active. Inconclusive results, whose numbers are uncertain, are shown with a selection of clear calls. Cut-off read from the data, not from the text of the source: active = activity change below about -50%; inconclusive = mostly about -30% to -49%; inactive = weaker than that. % is set by controls: 0 for no effect and ±100 for the full control effect.", "data": [{"assay": "qHTS for Inhibitors of Inflammasome Signaling: IL-1-beta AlphaLISA Primary Screen", "settings": "THP-1 LPS/ATP IL-1B secretion, 16 h; at 57.5 µM, stronger effect = lower value", "in_short": "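Secreted IL-1B measured by AlphaLISA bead assay after 16 h compound exposure of THP-1 cells; compounds (final up to 57.5 uM) added 1 h before LPS (250 ng/mL) and ATP (1.25 mM) stimulation; lower signal means less secretion.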", "values": [{"compound": "COc1ccc(C)cc1NC(=O)c1cc(S(=O)(=O)N2CCCCC2)ccc1N1CCOCC1", "activity change": "inconclusive: -33.8%"}, {"compound": "COc1ccccc1CNC(=O)C1CC2Cn3c(nc4cc(Cl)c(Cl)cc43)C2N1C", "note": "(configuration not stated)", "activity change": "inconclusive: -48.9%"}, {"compound": "COc1cc2cc(CN(CCc3cccc(C)c3)C(=S)NCCCN(C)C)c(=O)[nH]c2cc1OC", "activity change": "inconclusive: -31.7%"}, {"compound": "COc1c(Cl)cc(C(=O)Nc2ccccc2-c2ccccc2)cc1Cl", "activity change": "inconclusive: -35%"}, {"compound": "O=C(Cn1cc([N+](=O)[O-])ccc1=O)N1CCc2ccccc21", "activity change": "inactive: -0.657%"}, {"compound": "Cc1cc2nc(-c3cccc(Br)c3)c(Cc3ccsc3)n2c(C)c1Br", "activity change": "inactive: 23.8%"}, {"compound": "CC1=Nc2ccccc2/C1=C\\c1sc(Nc2ccc(C)cc2)nc1O", "activity change": "active: -52.9%"}, {"compound": "COc1ccc(-c2noc(N3CCC(C(=O)N4CCN(c5ccccn5)CC4)CC3)n2)cc1", "activity change": "inconclusive: -34.1%"}, {"compound": "CC1(C)Cc2cccc(C(=O)Nc3ccc(Cl)cc3)c2O1", "activity change": "inconclusive: -32.9%"}, {"compound": "CCc1ccc(NC(=O)N(Cc2ccco2)C(C)c2cccs2)cc1", "note": "(configuration not stated)", "activity change": "inconclusive: -37.5%"}, {"compound": "COc1ccc(OC)c(NC(=O)COC(=O)CCc2nc3ccccc3c(=O)[nH]2)c1", "activity change": "inactive: 27.7%"}, {"compound": "COc1ccc(C(=O)Nc2ccnn2C2CCN(Cc3ccc4nonc4c3)CC2)cc1", "activity change": "inconclusive: -45.3%"}, {"compound": "O=[N+]([O-])c1cc(Cl)ccc1N1CCN(c2ccccc2O)CC1", "activity change": "active: -95.6%"}, {"compound": "CC1(c2ccc3ccccc3c2)NC(=O)N(CC(=O)Nc2cccc(S(=O)(=O)N3CCOCC3)c2)C1=O", "note": "(configuration not stated)", "activity change": "inconclusive: -35.3%"}, {"compound": "CCOC(=O)c1c(C)nc2c(c1C)/C(=N/O)CC(C)(C)C2", "activity change": "inconclusive: -40.9%"}, {"compound": "COc1ccc(Cl)cc1-c1cc(C(=O)Nc2ccc(Br)cc2)[nH]n1", "activity change": "inconclusive: -30.3%"}, {"compound": "CCN1CCN(c2ccc(NC(=O)c3cccc(OCc4ccccc4)c3)cc2)CC1", "activity change": "active: -80.3%"}, {"compound": "CN(Cc1ccccc1)Cc1c[nH]c2ccccc12", "activity change": "inconclusive: -45.6%"}, {"compound": "COc1ccc(N=Cc2c(O)[nH]c3ccccc23)cc1", "activity change": "inconclusive: -42.8%"}, {"compound": "O=c1c(-c2nnc(SCc3ccc(Cl)cc3Cl)o2)cccn1Cc1ccccc1", "activity change": "inconclusive: -35%"}, {"compound": "Cc1c(C(=O)N(Cc2nnc(-c3ccccc3Cl)o2)C2CC2)oc2ccccc12", "activity change": "inactive: 21.3%"}, {"compound": "C[C@@H]1CN([C@@H](C)CO)C(=O)c2cc(C#Cc3ccccc3)cnc2O[C@H]1CN(C)C(=O)c1ccccc1F", "activity change": "inconclusive: -30.2%"}, {"compound": "CCCCCCCCN1C(=O)[C@H](CC(=O)N2CCCCC2)C[C@@]2(C(=O)OCC)CCCC=C12", "activity change": "inconclusive: -30.4%"}, {"compound": "C#CCOCCOCCOCCNc1nc(N2CCN(C(=O)[C@H]([C@@H](C)CC)n3cc([C@@H](N)Cc4ccc(O)cc4)nn3)CC2)nc(N2CCN(C(=O)[C@H](Cc3ccc(O)cc3)n3cc([C@@H](N)C(C)CC)nn3)CC2)n1", "note": "(some centres not stated)", "activity change": "inactive: -4.9%"}, {"compound": "C[C@@H]1COC(=O)[C@@H](CC(=O)OC(C)(C)C)C/C=C\\C[C@@H](CC(=O)N[C@H](CO)Cc2ccccc2)C(=O)N1", "activity change": "inactive: 7.3%"}, {"compound": "CCCSc1nnc(Sc2nnnn2-c2ccccc2)s1", "activity change": "active: -62.1%"}, {"compound": "S=C(Nc1ccccc1)Nc1ccc(OCc2ccccc2)cc1", "activity change": "inconclusive: -33.3%"}, {"compound": "O=C(C1CC1)N1CCc2cc(Br)cc(S(=O)(=O)NC3CCCCC3)c21", "activity change": "inconclusive: -32.2%"}, {"compound": "N#C/C(=C\\c1ccc(O)cc1)C(=O)NCc1cccc(Cl)c1", "activity change": "inactive: -15.8%"}, {"compound": "CCO[C@H]1OC(C(=O)NCc2ccccc2)=C[C@@H](C2CCCCC2)[C@@H]1CCCO", "activity change": "inactive: -4.79%"}, {"compound": "O=C(c1ccccc1)C1CCN(C(=O)c2ccco2)CC1", "activity change": "inconclusive: -31.8%"}, {"compound": "O=C(CN1CCCC1)Nc1cc(C(F)(F)F)cc(C(F)(F)F)c1", "activity change": "active: -68.8%"}, {"compound": "O=C(C(c1ccccc1)C(O)c1ccccc1)N1CCOCC1", "note": "(configuration not stated)", "activity change": "inactive: -3.92%"}, {"compound": "COC(=O)C1=C(C)N(Cc2ccccc2)C(=NCc2ccccc2)N[C@H]1c1ccccc1", "activity change": "inconclusive: -43.6%"}, {"compound": "CC(Cc1ccccc1)NC(=O)CC(c1ccccc1)c1ccccc1O", "note": "(configuration not stated)", "activity change": "inconclusive: -35.7%"}, {"compound": "CCC1(C)CC2(CCCN(CCC(O)(c3ccccc3)c3ccccc3)C2)CCO1", "note": "(configuration not stated)", "activity change": "inconclusive: -38.3%"}, {"compound": "CCCc1nc(SCC(=O)NC2CCCC2)c2ccccc2n1", "activity change": "active: -57.6%"}, {"compound": "CC(=O)c1ccc(Nc2nc(C(N)CCc3ccccc3)cs2)cc1", "note": "(configuration not stated)", "activity change": "inconclusive: -31.3%"}, {"compound": "COc1ccc(OC)c2[nH]c(=O)c(CCNC(=S)NC(C)(C)C)cc12", "activity change": "inconclusive: -36%"}, {"compound": "CCN1CCN(c2ccc(S(=O)(=O)N3CCCCC3)cc2NC(=O)C(C)Oc2ccc(F)cc2)CC1", "note": "(configuration not stated)", "activity change": "inconclusive: -47.7%"}, {"compound": "CCC(=O)N1CCC1(C)C(=O)Nc1nccs1", "note": "(configuration not stated)", "activity change": "inactive: 43.4%"}, {"compound": "COc1cc(/C=C2\\SC(=S)N(CCCCC(=O)O)C2=O)ccc1OS(=O)(=O)c1ccc(C)cc1", "activity change": "active: -87.3%"}, {"compound": "CN(CC(=O)Nc1ccc(Cl)c(C(F)(F)F)c1)C(=O)Cn1cc([N+](=O)[O-])ccc1=O", "activity change": "inconclusive: -35.9%"}, {"compound": "CCCCn1c(=N)n(CC(O)COc2ccccc2)c2ccccc21", "note": "(configuration not stated)", "activity change": "inconclusive: -38.2%"}, {"compound": "CCN(CC)CCN(C(=O)Cn1nnc(-c2ccc(C)o2)n1)C(C(=O)NC1CCCC1)c1ccc(F)cc1", "note": "(configuration not stated)", "activity change": "inconclusive: -46.3%"}, {"compound": "CCOC(=O)N1CCN(c2ccc(C(=O)c3cccc(F)c3)cc2)CC1", "activity change": "inconclusive: -39.4%"}, {"compound": "Cc1ccccc1OCc1nc(-c2ccc(NC(=O)c3ccco3)cc2)no1", "activity change": "inactive: 0%"}, {"compound": "CCCn1nc(NC(=O)c2ccccn2)c2cc3cc(C)ccc3nc21", "activity change": "active: -62.7%"}, {"compound": "NS(=O)(=O)c1ccc(CCNc2ccccc2[N+](=O)[O-])cc1", "activity change": "inconclusive: -44.5%"}, {"compound": "Cn1nccc1C(=O)N1CCCC(C(=O)c2ccc(Oc3ccccc3)cc2)C1", "note": "(configuration not stated)", "activity change": "inconclusive: -47.5%"}, {"compound": "CCN(CCCNC(=O)COc1cc(=O)n(C)c2ccccc12)c1cccc(C)c1", "activity change": "inconclusive: -32.9%"}, {"compound": "Cn1nc(C(F)(F)F)cc1C(=O)Nc1ccc(-c2ccno2)cc1", "activity change": "inconclusive: -42%"}]}]}
